{"source": "the supplement of paper PMC8728848", "binders": {"B1": {"name": "PLU (Photorhabdus luminiscence) (protein)", "chain": "HHHHHHENLYFQSSIVFASIDPRSNPLQTSSQNYVDIPGLKLDVSKYSNSPCLTALITLNIPTPYASGNNFPGGNFAIVTDQGEQLAYGGFTYSSKIPENSGRMPFTLVARYSLASNVSTIKAQWSNIRGSTVHIDSYASISAVIQCNQLV"}}, "experiment_in_all_cases": "glycan array binding signal (z-score within array); higher = stronger binding", "settings_in_all_cases": "glycan notation: IUPAC condensed, linker removed", "key": {"[1]": {"biological_target": "Fuc(a1-2)[Gal(a1-3)]Gal(b1-4)GlcNAc(b1-2)Man(a1-3)[Fuc(a1-2)[Gal(a1-3)]Gal(b1-4)GlcNAc(b1-2)Man(a1-6)]Man(b1-4)GlcNAc(b1-4)[Fuc(a1-6)]GlcNAc", "procedure,_shortened": "(§1)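 Glycan array binding is given as a within-array Z-score, which can be read as non-binding when negative. The arrays, 3228 of them, came from the Consortium for Functional Glycomics database and were retained only where the protein sequence was available. Z-scores were averaged across arrays of the same protein sequence at different concentrations or buffers and across linkers.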"}, "[2]": {"biological_target": "Fuc(a1-2)[Gal(a1-3)]Gal(b1-4)GlcNAc(b1-3)GalNAc", "procedure,_shortened": "as §1"}, "[3]": {"biological_target": "Fuc(a1-2)[Gal(a1-3)]Gal(b1-4)GlcNAc(b1-3)[Fuc(a1-2)[Gal(a1-3)]Gal(b1-4)GlcNAc(b1-6)]GalNAc", "procedure,_shortened": "as §1"}, "[4]": {"biological_target": "Fuc(a1-2)[Gal(a1-3)]Gal(b1-4)GlcNAc(b1-6)GalNAc", "procedure,_shortened": "as §1"}, "[5]": {"biological_target": "Fuc(a1-2)[Gal(a1-3)]Gal(b1-4)[Fuc(a1-3)]Glc", "procedure,_shortened": "as §1"}, "[6]": {"biological_target": "Fuc(a1-2)[Gal(a1-3)]Gal(b1-4)[Fuc(a1-3)]GlcNAc", "procedure,_shortened": "as §1"}, "[7]": {"biological_target": "Fuc(a1-2)[Gal(a1-3)]Gal(b1-4)[Fuc(a1-3)]GlcNAc(b1-3)GalNAc", "procedure,_shortened": "as §1"}, "[8]": {"biological_target": "Fuc(a1-2)[Gal(a1-4)]Gal(b1-4)GlcNAc", "procedure,_shortened": "as §1"}, "[9]": {"biological_target": "Fuc(a1-2)[GalNAc(a1-3)]Gal", "procedure,_shortened": "as §1"}, "[10]": {"biological_target": "Fuc(a1-2)[GalNAc(a1-3)]Gal(b1-3)GalNAc(a1-3)[Fuc(a1-2)]Gal(b1-4)GlcNAc", "procedure,_shortened": "as §1"}, "[11]": {"biological_target": "Fuc(a1-2)[GalNAc(a1-3)]Gal(b1-3)GalNAc(b1-3)Gal(a1-4)Gal(b1-4)Glc", "procedure,_shortened": "as §1"}, "[12]": {"biological_target": "Fuc(a1-2)[GalNAc(a1-3)]Gal(b1-3)GlcNAc", "procedure,_shortened": "as §1"}, "[13]": {"biological_target": "Fuc(a1-2)[GalNAc(a1-3)]Gal(b1-3)GlcNAc(b1-2)Man(a1-3)[Fuc(a1-2)[GalNAc(a1-3)]Gal(b1-3)GlcNAc(b1-2)Man(a1-6)]Man(b1-4)GlcNAc(b1-4)GlcNAc", "procedure,_shortened": "as §1"}, "[14]": {"biological_target": "Fuc(a1-2)[GalNAc(a1-3)]Gal(b1-3)GlcNAc(b1-2)Man(a1-3)[Fuc(a1-2)[GalNAc(a1-3)]Gal(b1-3)GlcNAc(b1-2)Man(a1-6)]Man(b1-4)GlcNAc(b1-4)[Fuc(a1-6)]GlcNAc", "procedure,_shortened": "as §1"}, "[15]": {"biological_target": "Fuc(a1-2)[GalNAc(a1-3)]Gal(b1-3)GlcNAc(b1-3)GalNAc", "procedure,_shortened": "as §1"}, "[16]": {"biological_target": "Fuc(a1-2)[GalNAc(a1-3)]Gal(b1-3)GlcNAc(b1-6)GalNAc", "procedure,_shortened": "as §1"}, "[17]": {"biological_target": "Fuc(a1-2)[GalNAc(a1-3)]Gal(b1-4)Glc", "procedure,_shortened": "as §1"}, "[18]": {"biological_target": "Fuc(a1-2)[GalNAc(a1-3)]Gal(b1-4)GlcNAc", "procedure,_shortened": "as §1"}, "[19]": {"biological_target": "Fuc(a1-2)[GalNAc(a1-3)]Gal(b1-4)GlcNAc(b1-2)Man", "procedure,_shortened": "as §1"}, "[20]": {"biological_target": "Fuc(a1-2)[GalNAc(a1-3)]Gal(b1-4)GlcNAc(b1-2)Man(a1-3)[Fuc(a1-2)[GalNAc(a1-3)]Gal(b1-4)GlcNAc(b1-2)Man(a1-6)]Man(b1-4)GlcNAc(b1-4)GlcNAc", "procedure,_shortened": "as §1"}, "[21]": {"biological_target": "Fuc(a1-2)[GalNAc(a1-3)]Gal(b1-4)GlcNAc(b1-2)Man(a1-3)[Fuc(a1-2)[GalNAc(a1-3)]Gal(b1-4)GlcNAc(b1-2)Man(a1-6)]Man(b1-4)GlcNAc(b1-4)[Fuc(a1-6)]GlcNAc", "procedure,_shortened": "as §1"}, "[22]": {"biological_target": "Fuc(a1-2)[GalNAc(a1-3)]Gal(b1-4)GlcNAc(b1-3)Gal(b1-4)GlcNAc", "procedure,_shortened": "as §1"}, "[23]": {"biological_target": "Fuc(a1-2)[GalNAc(a1-3)]Gal(b1-4)GlcNAc(b1-3)Gal(b1-4)GlcNAc(b1-3)Gal(b1-4)GlcNAc", "procedure,_shortened": "as §1"}, "[24]": {"biological_target": "Fuc(a1-2)[GalNAc(a1-3)]Gal(b1-4)GlcNAc(b1-3)GalNAc", "procedure,_shortened": "as §1"}, "[25]": {"biological_target": "Fuc(a1-2)[GalNAc(a1-3)]Gal(b1-4)GlcNAc(b1-3)[Fuc(a1-2)[GalNAc(a1-3)]Gal(b1-4)GlcNAc(b1-6)]GalNAc", "procedure,_shortened": "as §1"}, "[26]": {"biological_target": "Fuc(a1-2)[GalNAc(a1-3)]Gal(b1-4)GlcNAc(b1-6)GalNAc", "procedure,_shortened": "as §1"}, "[27]": {"biological_target": "Fuc(a1-2)[GalNAc(a1-3)]Gal(b1-4)[Fuc(a1-3)]GlcNAc", "procedure,_shortened": "as §1"}, "[28]": {"biological_target": "Fuc(a1-2)[GalNAc(a1-3)]Gal(b1-4)[Fuc(a1-3)]GlcNAc(b1-3)GalNAc", "procedure,_shortened": "as §1"}, "[29]": {"biological_target": "Fuc(a1-2)[GalNAc(a1-4)]Gal(b1-4)GlcNAc", "procedure,_shortened": "as §1"}, "[30]": {"biological_target": "Fuc(a1-2)[GalNAc(b1-3)]Gal", "procedure,_shortened": "as §1"}, "Fuc(a1-3)GlcNAc": {"biological_target": "Fuc(a1-3)GlcNAc", "procedure,_shortened": "as §1"}, "[31]": {"biological_target": "Fuc(a1-3)[Gal(b1-4)]Glc6S", "procedure,_shortened": "as §1"}, "[32]": {"biological_target": "Fuc(a1-3)[Gal(b1-4)]GlcNAc", "procedure,_shortened": "as §1"}, "[33]": {"biological_target": "Fuc(a1-3)[Gal(b1-4)]GlcNAc(b1-2)Man", "procedure,_shortened": "as §1"}, "[34]": {"biological_target": "Fuc(a1-3)[Gal(b1-4)]GlcNAc(b1-2)Man(a1-3)[Fuc(a1-3)[Gal(b1-4)]GlcNAc(b1-2)Man(a1-6)]Man(b1-4)GlcNAc(b1-4)GlcNAc", "procedure,_shortened": "as §1"}, "[35]": {"biological_target": "Fuc(a1-3)[Gal(b1-4)]GlcNAc(b1-2)Man(a1-3)[Fuc(a1-3)[Gal(b1-4)]GlcNAc(b1-2)Man(a1-6)]Man(b1-4)GlcNAc(b1-4)[Fuc(a1-6)]GlcNAc", "procedure,_shortened": "as §1"}, "[36]": {"biological_target": "Fuc(a1-3)[Gal(b1-4)]GlcNAc(b1-3)Gal(b1-3)[Fuc(a1-4)]GlcNAc", "procedure,_shortened": "as §1"}, "[37]": {"biological_target": "Fuc(a1-3)[Gal(b1-4)]GlcNAc(b1-3)Gal(b1-4)[Fuc(a1-3)]GlcNAc", "procedure,_shortened": "as §1"}, "[38]": {"biological_target": "Fuc(a1-3)[Gal(b1-4)]GlcNAc(b1-3)Gal(b1-4)[Fuc(a1-3)]GlcNAc(b1-3)Gal(b1-4)[Fuc(a1-3)]GlcNAc", "procedure,_shortened": "as §1"}, "[39]": {"biological_target": "Fuc(a1-3)[Gal(b1-4)]GlcNAc(b1-3)GalNAc", "procedure,_shortened": "as §1"}, "[40]": {"biological_target": "Fuc(a1-3)[Gal(b1-4)]GlcNAc(b1-6)GalNAc", "procedure,_shortened": "as §1"}, "[41]": {"biological_target": "Fuc(a1-3)[Gal(b1-4)]GlcNAc(b1-6)[Gal(b1-3)GlcNAc(b1-3)]Gal(b1-4)Glc", "procedure,_shortened": "as §1"}, "[42]": {"biological_target": "Fuc(a1-3)[Gal(b1-4)]GlcNAc6S", "procedure,_shortened": "as §1"}, "[43]": {"biological_target": "Fuc(a1-3)[Gal3S(b1-4)]Glc", "procedure,_shortened": "as §1"}, "[44]": {"biological_target": "Fuc(a1-3)[Gal3S(b1-4)]GlcNAc", "procedure,_shortened": "as §1"}}, "note": "The other results are listed elsewhere or left out.", "data": [{"binder": "B1", "values": [{"measurement": "glycan array binding signal (z-score)", "setting": "[1]", "value": 1.48}, {"measurement": "glycan array binding signal (z-score)", "setting": "[2]", "value": 1.97}, {"measurement": "glycan array binding signal (z-score)", "setting": "[3]", "value": 2.24}, {"measurement": "glycan array binding signal (z-score)", "setting": "[4]", "value": -0.294}, {"measurement": "glycan array binding signal (z-score)", "setting": "[5]", "value": 1.64}, {"measurement": "glycan array binding signal (z-score)", "setting": "[6]", "value": 5.59}, {"measurement": "glycan array binding signal (z-score)", "setting": "[7]", "value": 2.44}, {"measurement": "glycan array binding signal (z-score)", "setting": "[8]", "value": 2.22}, {"measurement": "glycan array binding signal (z-score)", "setting": "[9]", "value": -0.022}, {"measurement": "glycan array binding signal (z-score)", "setting": "[10]", "value": 0.11}, {"measurement": "glycan array binding signal (z-score)", "setting": "[11]", "value": -0.33}, {"measurement": "glycan array binding signal (z-score)", "setting": "[12]", "value": -0.115}, {"measurement": "glycan array binding signal (z-score)", "setting": "[13]", "value": -0.157}, {"measurement": "glycan array binding signal (z-score)", "setting": "[14]", "value": -0.249}, {"measurement": "glycan array binding signal (z-score)", "setting": "[15]", "value": -0.232}, {"measurement": "glycan array binding signal (z-score)", "setting": "[16]", "value": -0.294}, {"measurement": "glycan array binding signal (z-score)", "setting": "[17]", "value": 2.77}, {"measurement": "glycan array binding signal (z-score)", "setting": "[18]", "value": 2.73}, {"measurement": "glycan array binding signal (z-score)", "setting": "[19]", "value": 3.66}, {"measurement": "glycan array binding signal (z-score)", "setting": "[20]", "value": 0.292}, {"measurement": "glycan array binding signal (z-score)", "setting": "[21]", "value": -0.244}, {"measurement": "glycan array binding signal (z-score)", "setting": "[22]", "value": 11.7}, {"measurement": "glycan array binding signal (z-score)", "setting": "[23]", "value": 2.73}, {"measurement": "glycan array binding signal (z-score)", "setting": "[24]", "value": -0.364}, {"measurement": "glycan array binding signal (z-score)", "setting": "[25]", "value": 2.28}, {"measurement": "glycan array binding signal (z-score)", "setting": "[26]", "value": 2.34}, {"measurement": "glycan array binding signal (z-score)", "setting": "[27]", "value": 3.42}, {"measurement": "glycan array binding signal (z-score)", "setting": "[28]", "value": -0.031}, {"measurement": "glycan array binding signal (z-score)", "setting": "[29]", "value": 2.34}, {"measurement": "glycan array binding signal (z-score)", "setting": "[30]", "value": -0.231}, {"measurement": "glycan array binding signal (z-score)", "setting": "Fuc(a1-3)GlcNAc", "value": 1.49}, {"measurement": "glycan array binding signal (z-score)", "setting": "[31]", "value": -0.162}, {"measurement": "glycan array binding signal (z-score)", "setting": "[32]", "value": -0.289}, {"measurement": "glycan array binding signal (z-score)", "setting": "[33]", "value": -0.353}, {"measurement": "glycan array binding signal (z-score)", "setting": "[34]", "value": -0.28}, {"measurement": "glycan array binding signal (z-score)", "setting": "[35]", "value": -0.256}, {"measurement": "glycan array binding signal (z-score)", "setting": "[36]", "value": -0.214}, {"measurement": "glycan array binding signal (z-score)", "setting": "[37]", "value": -0.264}, {"measurement": "glycan array binding signal (z-score)", "setting": "[38]", "value": -0.134}, {"measurement": "glycan array binding signal (z-score)", "setting": "[39]", "value": -0.246}, {"measurement": "glycan array binding signal (z-score)", "setting": "[40]", "value": -0.177}, {"measurement": "glycan array binding signal (z-score)", "setting": "[41]", "value": -0.306}, {"measurement": "glycan array binding signal (z-score)", "setting": "[42]", "value": -0.364}, {"measurement": "glycan array binding signal (z-score)", "setting": "[43]", "value": -0.27}, {"measurement": "glycan array binding signal (z-score)", "setting": "[44]", "value": -0.291}]}]}
